# Reference: PMC6919601, “Identification of Plasmodium dipeptidyl aminopeptidase allosteric inhibitors by high throughput screening” (PLoS ONE, 2019)
# About 230 (0.21%) of roughly 110,000 compounds showed an effect of 50% or more. This is one part of the list.
# Molecular target: DPAP1 (Plasmodium falciparum, UniProt Q8IIJ9)
# Experiment: primary screen, percent inhibition; read by cleavage of a fluorogenic dipeptide substrate; higher = more effect of the substance
# Design: species or system P. falciparum D10 trophozoite lysates; single well
# 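Note: 30 min substrate incubation versus DMSO and 10 µM JCP410 controls.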
# Sequence of DPAP1 (Q8IIJ9 whole entry, looked up): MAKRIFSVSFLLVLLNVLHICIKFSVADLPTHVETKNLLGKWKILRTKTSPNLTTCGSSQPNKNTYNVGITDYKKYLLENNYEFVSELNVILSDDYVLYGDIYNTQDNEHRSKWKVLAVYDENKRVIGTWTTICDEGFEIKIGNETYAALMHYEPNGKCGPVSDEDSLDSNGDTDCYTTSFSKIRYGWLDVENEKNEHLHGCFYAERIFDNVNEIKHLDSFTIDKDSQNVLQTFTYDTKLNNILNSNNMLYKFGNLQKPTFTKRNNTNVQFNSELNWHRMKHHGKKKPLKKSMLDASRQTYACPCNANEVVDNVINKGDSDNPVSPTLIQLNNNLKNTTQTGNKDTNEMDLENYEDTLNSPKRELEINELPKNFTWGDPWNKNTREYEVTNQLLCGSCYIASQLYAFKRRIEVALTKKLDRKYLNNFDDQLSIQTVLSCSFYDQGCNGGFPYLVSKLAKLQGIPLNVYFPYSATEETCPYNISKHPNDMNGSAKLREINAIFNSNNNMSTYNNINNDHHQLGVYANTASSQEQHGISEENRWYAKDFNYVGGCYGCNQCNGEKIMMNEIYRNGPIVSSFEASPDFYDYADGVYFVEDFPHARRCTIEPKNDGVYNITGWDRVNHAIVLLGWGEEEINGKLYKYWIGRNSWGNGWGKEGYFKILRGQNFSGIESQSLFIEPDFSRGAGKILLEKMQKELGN
row,SMILES,% Inhibition @ 10 uM [%]
1,Cc1sc(C(=O)O)c(C)c1-c1c(C)sc(C(=O)O)c1C,-12.9
2,CC(C)CSc1nc(O)c2cnn(-c3ccccc3)c2n1,-1.76
3,COc1ccc(OCC(=O)Nc2cccc3cccnc23)cc1,-5.92
4,O=C(O)CSc1cc(C(=O)O)ccc1[N+](=O)[O-],-5.28
5,CCn1ncc(Cl)c1C(=O)NC(C)C1CC2CCC1C2 (centres unmarked),0.673
6,N#CC1=C(N)Oc2c(c(O)nc3ccccc23)C1c1ccc(Cl)cc1Cl (centres unmarked),19.3
7,CCN1CCN(C(=O)CS(=O)Cc2nc(-c3cccc(C)c3)oc2C)CC1 (centres unmarked),3.99
8,CCc1c(C)sc(NC(=O)c2cc(-c3cccc(OC)c3)on2)c1C#N,-1.28
9,COc1ccc(N2C(=O)CC(N3CCN(C(=O)CN4CCCC4)CC3)C2=O)cc1 (centres unmarked),-2.74
10,CNC(=O)C1=C(C)N=C(S)NC1c1ccc(OCC(C)C)cc1 (centres unmarked),-5.25
11,Cc1ccc(S(=O)(=O)Cc2nc(-c3ccc(C(=O)NCc4ccc(C)o4)cc3)oc2C)cc1,-0.416
12,CCCCCCc1c(O)nc(S)nc1O,22.8
13,O=C(NCc1ccccc1)c1cc2n(n1)C(C(F)(F)F)CC(c1ccccc1)N2 (centres unmarked),-2.85
14,Cc1cccc(OCC(O)Cn2c(NCCCn3ccnc3)nc3c2c(=O)[nH]c(=O)n3C)c1 (centres unmarked),2.31
15,Oc1c(C(c2ccccn2)N2CCN(c3ccccn3)CC2)ccc2cccnc12 (centres unmarked),2.4
16,CSc1cccc(NC(=O)c2ccc(Cl)cc2Cl)c1,-7.4
17,Cc1ccc(C)c(Cn2c(=O)ccn(CCOc3ccc(Cl)cc3)c2=O)c1,-1.85
18,COc1ccccc1NC1=C(Cl)C(=O)N(Cc2ccccc2)C1=O,1.08
19,COc1ccccc1N1CCN(C(=O)c2cccc([N+](=O)[O-])c2)CC1,1.55
20,Cc1ccc(S(=O)(=O)NC2=NCN(CC(=O)O)CN2)cc1,1.26
21,NS(=O)(=O)c1ccc(CC/N=C2/C=C(O)CC(c3ccco3)C2)cc1 (centres unmarked),0.777
22,Cc1cc(=O)n2nc(N3CCCC(C(=O)N4CCN(C)CC4)C3)sc2n1 (centres unmarked),1.38
23,O=S(=O)(NCC1CCCO1)c1ccc2[nH]c3c(c2c1)CCCCC3 (centres unmarked),5.66
24,CC1CCc2c(C(=O)NCCc3ccc(Cl)cc3)csc2C1 (centres unmarked),-1.44
25,Cc1noc2ncnc(NC3CCCCC3)c12,-9.36
26,O=C(O)c1nccnc1C(=O)Nc1cccc(O)c1,-5.9

row,SMILES,% Inhibition @ 10 uM [%]
1,Cc1ccccc1NC(=O)c1nccnc1C(=O)O,-2.18
2,CCCCC(=O)Nc1ccc(NC(=O)C(C)C)c(OC)c1,1.37
3,O=C(Nc1ccccn1)C1OCCc2ccccc21 (centres unmarked),-0.45
4,Cc1ccc2nsnc2c1S(=O)(=O)NCc1ccncc1,2.18
5,CCc1cccc2c(C#N)cn(CC(=O)N3CCOCC3)c12,3.19
6,COCCNC(=O)c1cccc2c1-c1ccccc1C2=O,-4.51
7,CC(CN1CCN(C)CC1)c1ccccc1 (centres unmarked),-1.78
8,COc1cc(C(=O)N(Cc2ccc(Cl)cc2)Cc2ccco2)cc(OC)c1OC,-4.02
9,Cc1nc2ccccc2c2oc(C(=O)NCCN3CCCCC3C)cc12 (centres unmarked),-9.07
10,O=C(CCn1cnnn1)Nc1ncccn1,5.93
11,CC(C)c1ccc(N2CC(C(=O)Nc3ccc(Br)cc3)CC2=O)cc1 (centres unmarked),3.32
12,O=C1c2ccc(-c3ccc4c(c3)C(=O)N(CCO)C4=O)cc2C(=O)N1CCO,1.63
13,Cc1noc(C(=O)N2CCN(C(c3ccccc3)c3ccccc3)CC2)c1Cl,-0.0115
14,CCCOc1ccc(-c2ccc(C#N)cc2)cc1,1.41
15,CC1CCc2c(sc(N)c2C(=O)OC(C)C)C1 (centres unmarked),30.4
16,N#CC1=C(N)SC2c3ccccc3CCC12 (centres unmarked),10.3
17,COc1ccc(C(=O)N(Cc2ccc(C)o2)C2CCS(=O)(=O)C2)cc1Cl (centres unmarked),-1.11
18,COc1ccc(-c2noc(N3CCCC(C(=O)N4CCCCCC4)C3)n2)cc1 (centres unmarked),-0.431
19,COc1cc(CN2CCCC(O)C2)cc(OC)c1 (centres unmarked),0.829
20,c1ccc(CC2=NNC(c3ccccc3)S2)cc1 (centres unmarked),3.32
21,COc1ccc(S(=O)(=O)N2CCC(NC(=O)NCc3ccc(C)cc3)CC2)cc1,0.425
22,COc1ccccc1CNc1nc2ccccc2c2nc(CCn3nc(C)cc3C)nn12,-2.42
23,Oc1c2c(nc3cc(-c4ccc(-c5ccccc5)cc4)nn13)CCC2,-9.63
24,N#CCNC(=O)[C@H](CS(=O)(=O)Cc1ccccc1)NC(=O)c1ccc(O)cc1,3.1
25,C/C(=N\Cc1ccco1)c1c(C(F)(F)F)nn(-c2nc3ccccc3s2)c1O,-1.06
26,Cc1cc(C)n2nc(SCC(=O)Nc3ccc(Cl)cc3)nc2n1,-6.83

row,SMILES,% Inhibition @ 10 uM [%]
1,Oc1cc(O)c2sc3nc(-c4ccncc4)ccc3c2n1,3.39
2,CC(=O)c1nn(-c2ccccc2)cc1C(=O)c1ccc(C)cc1,3.69
3,COc1cccc(/C=C2/SC(=O)N(CC(=O)N3CCc4ccccc4C3)C2=O)c1OCC(=O)O,1.17
4,CCCC(=O)Nc1ccc(S(=O)(=O)Nc2ccc(C)cc2C)cc1,-1.61
5,Cn1c(=O)c2c(nc(NCCCc3ccccc3)n2Cc2ccc(Br)cc2)n(C)c1=O,-3.5
6,CCC(C)c1ccc(NC(=O)CSc2nc(C)cc(C)n2)cc1 (centres unmarked),-2.17
7,CC(CCc1ccccc1)NCCCN1CCOCC1 (centres unmarked),-0.292
8,COc1ccc(CCNC(=O)COc2ccc(Cl)cc2C)cc1OC,1.84
9,COc1ccc(CC(=O)Nc2ccccc2OC)cc1,-0.294
10,O=C(CSCC(=O)c1ccccc1)Nc1ccccc1,-4.43
11,O=S(=O)(Nc1cccnc1)c1ccc2ccccc2c1,4.06
12,Cc1nc(O)c(C(=O)/C=C/c2ccc(Cl)cc2)c2c1CCCC2,0.135
13,C=CCOc1ccc2oc(-c3ccc(OC)cc3)cc(=O)c2c1,6.28
14,CCOc1cc(C(=O)N2CCOCC2)cc(OCC)c1OCC,-0.999
15,O=C(O)c1ccc(CN2CCOCC2)o1,3.42
16,CC(C)(C)c1ccc(S(=O)(=O)Nc2ccc(C(=O)Nc3ccncc3)cc2)cc1,-5.3
17,COc1ccc(OC)c(CN(C)C2CCN(C)CC2)c1,0.708
18,CCOC(=O)c1sc(C)c(C(N)=O)c1N,3.82
19,CC1(C)CC(=O)C2=C(C1)OC(N)=C(C#N)C21CCCCC1,4.12
20,O=c1c(Cl)c(NCc2ccco2)cnn1C12CC3CC(CC(C3)C1)C2,8.63
21,O=C(O)COc1ccc(Br)cc1/C=C1\NC(=O)N(Cc2ccc(Cl)cc2)C1=O,3.6
22,CC(CNC(=O)CN(C)c1nnc(N2CCCC2=O)s1)c1ccccc1 (centres unmarked),-3.43
23,COc1ccc(-c2ccc(C#N)c(SCC(=O)NCc3ccco3)n2)cc1OC,3.99
24,Cc1nc2cc(Br)c(Br)cc2n1-c1ccccc1,-2.03
25,Cc1cc(C)cc(NC(=O)CSc2nc3ccccc3o2)c1,-8.52
26,CC(=O)Nc1cccc(C2=CC(c3ccco3)n3ncnc3N2)c1 (centres unmarked),6.97

row,SMILES,% Inhibition @ 10 uM [%]
1,CC1=C(C(=O)OCc2ccccc2)C(c2ccsc2)NC(=O)N1C (centres unmarked),14.5
2,CCN(CC)CCCn1c(C)cc2c(c1=O)C(c1ccc(Cl)cc1)C(C#N)=C(N)O2 (centres unmarked),-3.14
3,O=C(NCCNCCO)c1c(O)nc2c(c1O)CCCC2,-2.38
4,CN1CCN(C2=Cc3ccccc3Sc3cc(F)c(F)cc32)CC1,-8.83
5,CCC(=O)c1ccc(N2CCN(C(=O)c3ccc(F)cc3)CC2)c(F)c1,-3.45
6,O=C(C1=C(O)C(=O)N(CCCN2CCOCC2)C1c1cccnc1)c1cc2ccccc2o1 (centres unmarked),-13.5
7,Cc1cccc(OCC(=O)Nc2ccc(NC(=O)c3cccs3)cc2)c1,-5.6
8,CCOC(=O)N1CCC2(CC1)OC(=O)C(C)=C2C(=O)NCCc1ccc(Cl)cc1,1.86
9,COc1ccc(CCNC(=O)CN(c2ccc(C)cc2)S(=O)(=O)c2ccccc2)cc1OC,1.63
10,CC(C)NC(=O)Cn1c(=O)sc2ccccc21,-0.833
11,O=C(Cn1cnc2c(nnn2Cc2ccc(F)cc2)c1=O)N1CCCC1,-3.94
12,Cc1cc(C)n(-c2ncnc3sc4c(c23)CCCC4)n1,-6.68
13,Cc1cccc(C)c1NC(=O)C(c1ccccc1)N(C)C(=O)CN1C(=O)c2ccccc2C1=O (centres unmarked),17.7
14,COc1ccc(CNC(=O)Nc2cccs2)cc1OC,2.25
15,NC(=O)CCC(=O)NC12CC3CC(CC(C3)C1)C2,-2.6
16,Clc1ccc(OCCCCCCN2CCCC2)cc1,-2.12
17,Cc1ccc(NC(=O)c2cc(S(=O)(=O)N3CCCCC3)ccc2Br)cc1,1.27
18,Cc1ccc(NC(=O)C2(NC(=O)c3ccccn3)CCCCC2)cc1Br,-0.69
19,O=C1CN(S(=O)(=O)c2ccccc2)CCN1S(=O)(=O)c1ccccc1,60.8
20,Cc1ccc(-c2onc(C)c2C)cc1S(=O)(=O)N(C)Cc1ccccc1,-7.87
21,CNC(=O)c1ccc(CS(=O)c2ccccc2C)o1 (centres unmarked),5.66
22,COc1cccc(N2C(=O)c3cccc4cccc(c34)C2=O)c1,0.661
23,CCSc1nnc(NC(=O)CCN2C(=S)NC(C)(C)CC2C)s1 (centres unmarked),4.33
24,CCNC(=O)/C(=C\c1ccc2c(c1)OCO2)NC(=O)c1cccc(Br)c1,-1.07
25,Cn1nnnc1SCCCNCc1ccccc1OCc1ccccc1,2.25
26,CCCCNC(=O)CSc1ncccc1C(=O)NCCC1=CCCCC1,3.04
